Measured values: the supplement of paper PMC11417369
± gives the standard deviation of the averaged measurements. Some of the results follow.

system: PfAP2-EXP AP2 domain (GST-tagged); experiment: gcPBM binding intensity (ln(normalized median fluorescence intensity)); higher = stronger DNA binding
Summary of the method: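 GST-fused DNA-binding domains of P. falciparum, expressed in E. coli, were applied at about 25 μg on average for 1 h to an Agilent 4 × 180k array of primer-extended double-stranded 36-bp intergenic genomic probes and negative controls. Binding intensity is the highest Masliner-normalised natural-log median intensity across replicate spots of either probe orientation, measured with Alexa488 anti-GST antibody and a 488 nm scan.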

Row | Sequence | gcPBM binding intensity (ln)
1 | TATAAAAAATAATTATCATGAAATATATGATCATCA [TGCATGCA_negctrl_site137] | 8.48 ± 0.4
2 | ATATGAATAAATAAAAGTACATACATAATGTATTAT [XGTACX_site5969] | 8.56 ± 0.28
3 | TCAAAAATGAGTTACACACACACATATATATATATA [CACACA_site2229] | 10.2 ± 0.47
4 | TATATTTTTTATAAATGTACATGGATAGGCATAAAC [XGTACX_site8401] | 8.94 ± 0.15
5 | TTAAAAAAAATATAATGTACTTGTAGAATTATATTT [XGTACX_site6220] | 8.09 ± 0.26
6 | ACAAATAAATAAAAAACACACACAAATAAATAAATA [CACACA_site8708] | 8.62 ± 0.5
7 | AGTATATAAAATACTGTATCGATGGGGGAGGGCGCA [CACACA_negctrl_site1612] | 9.97 ± 0.23
8 | AATATAATGCAATATACACACATATATTTCTCTTTT [CACACA_site7276] | 8.42 ± 0.33
9 | TAATAATAAAATATTTGTACATATAAAATATGGCTG [XGTACX_site7904] | 8.39 ± 0.38
10 | AATTTTTTTCTCCAAGTGCATTAGAACATTAACGTA [GTGCAC_site9413] | 8.63 ± 0.11
11 | ATATATTTATGTATCACACACAAAAAAAAAAAATAA [CACACA_site255] | 8.39 ± 0.36
12 | ATTTTCCTTTAATTATGTACTTATGTAATAATAATG [XGTACX_site2612] | 8.51 ± 0.33
13 | ATCTCTACAAAGTGCACACACGTAAAAACATATATA [CACACA_site6046] | 9.04 ± 0.35
14 | GCACACATATAATTAAACATATATTTGTATTATTTT [GTGCAC_negctrl_site327] | 8.37 ± 0.3
15 | GTATCATAAAAGTATACACACATACATACATATGTA [CACACA_site5456] | 8.56 ± 0.37
16 | TGTATGATTATGTTGTGTACGTAAAATATGAAAAAT [XGTACX_site1720] | 9.12 ± 0.42
17 | TATCCTAATGCTACCACACACACAAAAACAAATAAT [CACACA_site2609] | 8.74 ± 0.57
18 | CCTTACTTCTTATAAAGTACCCAATGATATACATTA [XGTACX_site1554] | 8.41 ± 0.31
19 | AAAAAAAAGAATAGAGCATGCAAAATATATGAAATA [TGCATGCA_site933] | 9.48 ± 0.29
20 | ATGTTGAAAGGAAAAAATAATAAAATCGATATATTA [CACACA_negctrl_site549] | 8.41 ± 0.39
21 | AATATTTATGGGTGCACACAAACATACATATATATA [CACACA_site3395] | 9.04 ± 0.15
22 | TTTTAATGTATATTTTGTACGTATTATTAATATTCG [XGTACX_site8453] | 8.55 ± 0.38

Row | Sequence | gcPBM binding intensity (ln)
23 | TTATCATTACATGAGTGTACATTATTATATTTTTTT [XGTACX_site7845] | 8.56 ± 0.45
24 | TAAAGATATAAATGCACACGTATTAAAAAAAAAATA [CACACA_site952] | 8.79 ± 0.43
25 | GAAAGAAAGAAAGAAAGTACATATAAAAATATACAT [XGTACX_site7299] | 8.43 ± 0.48
26 | ATATATTTTTTTTTTTGTACGTATATTTATATAATT [XGTACX_site8719] | 8.81 ± 0.45
27 | TCGTGTTTTAAAAAAATGAAGAAAAGTAAAAAAAAA [XGTACX_negctrl_site23] | 8.46 ± 0.67
28 | ATGATAGTAATTAATAGTACTTTTTTTGATACAAAA [XGTACX_site4288] | 8.27 ± 0.33
29 | ATTAAATGTATGACTTGTACATAAAATAAAAAAAAA [XGTACX_site6555] | 8.61 ± 0.35
30 | TAATATGAATATATATGTACATACAATTTGTTATAT [XGTACX_site5815] | 8.47 ± 0.29
31 | ATTAGTGACATTATTACACACAAAAGAAAACAGAAA [CACACA_site3984] | 8.9 ± 0.47
32 | TGAATCTATATACAGGTGCGTAAAAAATAACTTATA | 8.59 ± 0.23
33 | CAAGAATTAAAATAAAGTACAAAAGTAACAACTTTT [XGTACX_site1474] | 8.25 ± 0.28
34 | AAAAAAAAGGAAAAGGGTACAAAACCATACTTACAT [XGTACX_site4783] | 8.62 ± 0.54
35 | ATAATATAATATATATGTACACATCCTTTTTGTGTA [XGTACX_site2879] | 8.62 ± 0.4
36 | TAAAAGTAAAAAGGTAGTACCTAAATAATATATATA [XGTACX_site8399] | 8.82 ± 0.099
37 | TATATATCCTCTGAATGTACTTGTTTAATAATGTAG [XGTACX_site4332] | 8.38 ± 0.43
38 | TGTGTAATATTCTGTTGTACATAACTCATAAATAAA [XGTACX_site5308] | 8.51 ± 0.33
39 | ATAAGATAGGCATATACACACATTTATTTACAGATA [CACACA_site5754] | 8.4 ± 0.47
40 | TTCAACATATTAAAAAGTACAGAATATAACATTATA [XGTACX_site1361] | 8.48 ± 0.42
41 | GAATAAAAAATTGGCACACATAAATATATGGATATA [CACACA_site3047] | 8.54 ± 0.51
42 | AATAAATTTAGACACACACACACATATAAATAAATA [CACACA_site6531] | 8.78 ± 0.54
43 | TATACGTGAATGACAGTGCATTTCAAAAGTATAAAA [GTGCAC_site9887] | 8.55 ± 0.32
44 | TTTGGGTATACACATACATGCATGTCCTTATATATA [TGCATGCA_site84] | 9.57 ± 0.39
